This is an account of results in the BET-seq Pho4 binding data (Le et al. 2018).

The list shows a part of the results. These are noisy estimates, calculated here from bound and input reads.

The assay addresses T1, Pho4 (S. cerevisiae) (UniProt P07270).
T1 sequence: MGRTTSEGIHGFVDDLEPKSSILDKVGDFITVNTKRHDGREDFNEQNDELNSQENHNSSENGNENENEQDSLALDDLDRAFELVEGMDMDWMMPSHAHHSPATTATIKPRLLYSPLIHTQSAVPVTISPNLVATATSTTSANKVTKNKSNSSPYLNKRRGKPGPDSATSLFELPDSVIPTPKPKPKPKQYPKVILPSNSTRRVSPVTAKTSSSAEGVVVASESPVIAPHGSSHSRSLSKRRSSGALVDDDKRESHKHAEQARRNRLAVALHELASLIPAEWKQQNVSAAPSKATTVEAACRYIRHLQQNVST
The assay is described as follows: relative binding free energy (BET-seq); higher = weaker binding. Particulars: reference: library average.
For TTAGACACGTGTTGCT, the “relative binding free energy” value was determined as 0.01 kcal/mol.
With TTTAACACGTGTGGCA, the “relative binding free energy” value was -0.04 kcal/mol.
As to ATAAGCACGTGTTTCT, the “relative binding free energy” value is -0.08 kcal/mol.
TTTCGCACGTGTGTTA: the “relative binding free energy” value is -0.13 kcal/mol.
As to AGTGGCACGTGCTTTA, the “relative binding free energy” value was -0.21 kcal/mol.
GGTTGCACGTGTTAGA: the “relative binding free energy” value is 0.13 kcal/mol.
Consider TGAGTCACGTGTTTGT, for which the “relative binding free energy” value turned out to be 0.12 kcal/mol.
As for TTTCTCACGTGCTGTA, the “relative binding free energy” value came to 0.23 kcal/mol.
The figure for ATCGACACGTGGAGGT is -0.01 kcal/mol; for GTACACACGTGGTGGT it is 0.05 kcal/mol; for AAGCTCACGTGTTGGG it is 0.27 kcal/mol.
Turning to TCGAGCACGTGGTAGG, the “relative binding free energy” value is -0.24 kcal/mol.
Next, AAGGTCACGTGGTATT: -0.04 kcal/mol; GGTAGCACGTGTGTGT: -0.03 kcal/mol; TGTTACACGTGACGGG: 0.17 kcal/mol.
Next, TGATGCACGTGTTTTG: 0.02 kcal/mol.
On to CTAGGCACGTGGTTAT, for which the “relative binding free energy” value was -0.32 kcal/mol.
With GACTGCACGTGGTTGG, the “relative binding free energy” value was -0.01 kcal/mol.
For TGGGACACGTGTTGTT, the “relative binding free energy” value came out at 0.04 kcal/mol.
Regarding GGGTTCACGTGTTGCA, the “relative binding free energy” value stood at 0.28 kcal/mol.
As to TTTTGCACGTGATGAA, the “relative binding free energy” value was found to be 0.09 kcal/mol.
With GTGATCACGTGGGAGA, the “relative binding free energy” value turned out to be 0.02 kcal/mol.
For GTGGACACGTGTAGTC, the “relative binding free energy” value came to 0.09 kcal/mol.
The figure for CTTTGCACGTGGCGCG is -0.05 kcal/mol; for ATGCGCACGTGAGTGG it is -0.04 kcal/mol; for AAAATCACGTGGTATG it is 0 kcal/mol.
Turning to TTTGTCACGTGCTCGT, the “relative binding free energy” value was -0.02 kcal/mol.
Turning to GTTGGCACGTGTGTCC, the “relative binding free energy” value was -0.08 kcal/mol.
The figure for AGGGTCACGTGGCTTA is -0.1 kcal/mol; for AAGTGCACGTGGATTG it is -0.13 kcal/mol.
For the sequence GGGATCACGTGGTGTG, the “relative binding free energy” value was determined as 0.12 kcal/mol.
CTGGGCACGTGGAGGA: the “relative binding free energy” value was -0.02 kcal/mol.
For the sequence TGTGTCACGTGGGCTG, the “relative binding free energy” value was 0 kcal/mol.
On to GTTGGCACGTGGGAGC, for which the “relative binding free energy” value was -0.03 kcal/mol.
For AGCTACACGTGTTGTG, the “relative binding free energy” value is -0.08 kcal/mol.
With CCTGTCACGTGGCGGG, the “relative binding free energy” value is 0.11 kcal/mol.
The figure for ATTGTCACGTGGTCAG is 0.06 kcal/mol; for ATTATCACGTGTCTTA it is 0.1 kcal/mol.
For the sequence AGGGACACGTGAGGGG, the “relative binding free energy” value was determined as 0.19 kcal/mol.
As for CGTGGCACGTGCATTG, the “relative binding free energy” value is -0.19 kcal/mol.
With TAGGTCACGTGGCTAG, the “relative binding free energy” value is -0.07 kcal/mol.
Take TGCGGCACGTGATGCG: the “relative binding free energy” value was -0.19 kcal/mol.
The figure for GTTTACACGTGGGTAC is 0.08 kcal/mol; for TGTGACACGTGGGTCC it is -0.11 kcal/mol.
In the case of GTTGGCACGTGCTTAG, the “relative binding free energy” value stood at 0 kcal/mol.
For GGGTACACGTGTTATG, the “relative binding free energy” value is 0.17 kcal/mol.
Take GGTGGCACGTGCGGAC: the “relative binding free energy” value was -0.2 kcal/mol.
The figure for AGTCGCACGTGGACGG is 0.04 kcal/mol; for AGTAACACGTGGTATA it is -0.11 kcal/mol; for GTGAGCACGTGCGGAG it is -0.18 kcal/mol.
Take AGGGACACGTGGAGTG: the “relative binding free energy” value was 0 kcal/mol.
The figure for TCGGGCACGTGCGATG is -0.18 kcal/mol.
As for GGCGTCACGTGTTTAG, the “relative binding free energy” value came out at 0.09 kcal/mol.
The figure for TGTGGCACGTGGCGGA is -0.16 kcal/mol.
Take TTCTGCACGTGTTTTT: the “relative binding free energy” value was determined as 0.05 kcal/mol.
On to TTTTGCACGTGGCTAG, for which the “relative binding free energy” value was -0.1 kcal/mol.
For TCATTCACGTGAGATT, the “relative binding free energy” value came to 0.39 kcal/mol.
Turning to ATAAGCACGTGGGTTA, the “relative binding free energy” value was -0.18 kcal/mol.
On to ATTAGCACGTGGTTGC, for which the “relative binding free energy” value is -0.16 kcal/mol.
Regarding TGTTTCACGTGACGTG, the “relative binding free energy” value came to 0.42 kcal/mol.
Next, TAATTCACGTGAGGGC: 0.4 kcal/mol.
Take GAGGACACGTGGTGAA: the “relative binding free energy” value amounted to 0 kcal/mol.
TAATGCACGTGTTGAT: the “relative binding free energy” value is -0.1 kcal/mol.
On to ACTGGCACGTGATGTT, for which the “relative binding free energy” value turned out to be 0.04 kcal/mol.
For CTAATCACGTGTATTT, the “relative binding free energy” value was determined as 0.19 kcal/mol.
The figure for AGAGTCACGTGAGAGT is 0.38 kcal/mol; for AGGGGCACGTGTACGG it is -0.19 kcal/mol; for TCGCGCACGTGGTTTG it is -0.1 kcal/mol.
On to ATGGACACGTGTATGA, for which the “relative binding free energy” value was determined as 0.06 kcal/mol.
Turning to GCGGACACGTGGCGGG, the “relative binding free energy” value is -0.05 kcal/mol.
With TGGCACACGTGGGTTA, the “relative binding free energy” value was -0.23 kcal/mol.
Consider TGGGTCACGTGGGCTA, for which the “relative binding free energy” value amounted to 0.02 kcal/mol.
In the case of GGGGGCACGTGTTTTC, the “relative binding free energy” value was -0.1 kcal/mol.
As to TTTGGCACGTGCGAAT, the “relative binding free energy” value was determined as 0.04 kcal/mol.
The figure for CTTTGCACGTGACGGG is 0.1 kcal/mol.
The figure for AATGACACGTGGGGAG is -0.04 kcal/mol.
The figure for AGTATCACGTGGGATT is 0.06 kcal/mol.
For the sequence TGTTACACGTGCGGTA, the “relative binding free energy” value was determined as 0.07 kcal/mol.
The figure for GAGGTCACGTGTGATA is 0.23 kcal/mol; for AATGTCACGTGCGGAA it is 0.02 kcal/mol; for TTTGCCACGTGGATGA it is 0.02 kcal/mol.
The figure for AGGTCCACGTGCGGGG is -0.04 kcal/mol; for ATTTTCACGTGTTTTA it is 0.31 kcal/mol.
Next, TGAATCACGTGGAGAG: 0.15 kcal/mol; GGCGGCACGTGTGTGT: -0.14 kcal/mol.
Turning to TGTGGCACGTGCGGGG, the “relative binding free energy” value is -0.13 kcal/mol.
Consider GTTGCCACGTGGTGCT, for which the “relative binding free energy” value was -0.03 kcal/mol.
As for AGGGGCACGTGAGGCC, the “relative binding free energy” value is -0.02 kcal/mol.
For AAGTTCACGTGAAGTG, the “relative binding free energy” value was determined as 0.25 kcal/mol.
Next, GGCAGCACGTGTTGGT: 0.01 kcal/mol.
With GATTACACGTGGGTAG, the “relative binding free energy” value worked out at 0.04 kcal/mol.
For TACTACACGTGGTAAT, the “relative binding free energy” value amounted to 0.32 kcal/mol.
As for GTCAACACGTGGTGTG, the “relative binding free energy” value was -0.09 kcal/mol.
The figure for AAGGGCACGTGTAGGA is -0.06 kcal/mol; for ATGCTCACGTGTTAGG it is 0.05 kcal/mol.
Regarding AGTTGCACGTGTCCGG, the “relative binding free energy” value worked out at 0.08 kcal/mol.
In the case of TGGCACACGTGGGTGC, the “relative binding free energy” value is -0.03 kcal/mol.
In the case of TAAAACACGTGGAATG, the “relative binding free energy” value is 0.24 kcal/mol.
For the sequence GGGAACACGTGTGGCG, the “relative binding free energy” value was 0.11 kcal/mol.
Next, CAAGGCACGTGAATGG: 0.1 kcal/mol.
As to CTTTGCACGTGTTCGG, the “relative binding free energy” value was determined as 0.05 kcal/mol.
Take GGGAGCACGTGTATTA: the “relative binding free energy” value was -0.12 kcal/mol.
As for TTCGTCACGTGCAGTT, the “relative binding free energy” value is 0.21 kcal/mol.
As to GGCGTCACGTGCTGTG, the “relative binding free energy” value was determined as 0 kcal/mol.
On to TAGTTCACGTGAATTG, for which the “relative binding free energy” value turned out to be 0.26 kcal/mol.
Consider ATATTCACGTGTAGAA, for which the “relative binding free energy” value came to 0.16 kcal/mol.
In the case of GGGAACACGTGCGGGC, the “relative binding free energy” value was determined as 0.03 kcal/mol.
In the case of TTGTACACGTGGTGCA, the “relative binding free energy” value is -0.11 kcal/mol.
With TACGTCACGTGTTCAG, the “relative binding free energy” value amounted to 0.15 kcal/mol.
On to ATGACCACGTGATGGG, for which the “relative binding free energy” value is 0.16 kcal/mol.
CATGGCACGTGGGGTT: the “relative binding free energy” value was -0.24 kcal/mol.
In the case of CGTATCACGTGGTCGT, the “relative binding free energy” value worked out at 0.09 kcal/mol.
For the sequence GAGATCACGTGCGTGG, the “relative binding free energy” value was 0.19 kcal/mol.
Regarding GGGGTCACGTGAGAGT, the “relative binding free energy” value came out at 0.43 kcal/mol.
Next, TTTTTCACGTGTTACA: 0.34 kcal/mol.
